# Assay results published in US20160237160A1, “ANTI-TWEAKR ANTIBODIES AND USES THEREOF” (BAYER PHARMA AKTIENGESELLSCHAFT, priority 2013, published 2016).
# Key:
# [1] = target: T1, TWEAKR protein (TPP-2305) (Homo sapiens, UniProt Q9NP84); test: Biacore monovalent KD with TWEAKR protein; details: first order 1:1 binding model
# T1 construct: TPP-2305; hTNFRSF12Aaa28-80; Human; 30R-AT080; 168; purchased Fitzgerald Inc 30R-AT080
# Procedure: Binding affinities of anti-TWEAKR antibodies were determined by surface plasmon resonance analysis on a Biacore T100 instrument (GE Healthcare Biacore, Inc.). Antibodies were immobilized onto a CM5 sensor chip through an indirect capturing reagent, anti-human IgG(Fc). Reagents from the “Human Antibody Capture Kit” (BR-1008-39, GE Healthcare Biacore, Inc.) were used as described by the manufacturer. Anti-TWEAKR antibodies were injected at a concentration of 10 μg/ml at 10 μl/min for 10 sec.
# Sensorgrams were generated after in-line reference cell correction followed by buffer sample subtraction. The dissociation equilibrium constant (KD) was calculated based on the ratio of association (kon) and dissociation rated (koff) constants, obtained by fitting sensorgrams with a first order 1:1 binding model.
# Lovo cells = test: Inhibition of proliferation (Cell Titer Glo); format: cell-based, human; details: 72h, 100 μg/ml antibody or *100 ng/ml TWEAK
# Procedure: (§1) Therefore cells were plated in 96well plates in 750 assay medium (growth media from Table 21, plus 100 ng/ml IFN gamma for 786-O cells) at the following cell numbers: WiDr cells 3000 cells/well, 786-O cells 2500 cells/well. 24 h later cells were incubated with anti-TWEAKR antibodies (see Table 26), recombinant human TWEAK or isotype control IgG (not shown) at the indicated concentrations (antibodies from 0.03-300 μg/ml, TWEAK 100 or 300 ng/ml). At the time of antibody addition cell viability was determined in sister plates (time point zero): therefore 750/well CTG solution (Promega Cell Titer Glo solution (catalog # G755B and G756B) was added to the cells, incubated for 10 minutes and luminescence was read on a Victor V (Perkin Elmer). 96 h after incubation with the agents, cell viability was determined in the assay plates by addition of 100 μl/well CTG solution, 10 min incubation and reading of luminescence. Proliferation in control wells was calculated by subtracting time zero values from the luminescence values in the untreated control wells. % of cell proliferation was calculated in the compound treated wells as compared to the untreated control wells.
# (§2) To evaluate, whether this strong anti-proliferative activity can also be observed in a broader cell panel, in addition LOVO, NCI-H1975, SW-480 (all 3000 cells/well), HT-29 (4000 cells/well), A253 and SK-OV3 (both 2500 cells/well) cells were incubated with 100 μg/ml anti-TWEAKR antibodies or TWEAK ligand for the time periods as indicated in Table 27. All cells were seeded in the growth media indicated in Table 21 and for all cells except for WiDr cells 100 ng/ml IFNgamma was added to the assay medium when seeding the cells. The percentage of growth inhibition for treated cells as compared to proliferation in untreated control cells was measured and calculated as described above. As shown in Table 27 the antibodies of the current invention are more efficacious as compared to other known antibodies in inhibiting proliferation of various cancer cell lines at 100 μg/ml. […]
# NCI-H1975 cells = test: Inhibition of proliferation (Cell Titer Glo); format: cell-based, human; details: 72h, 100 μg/ml antibody or *100 ng/ml TWEAK
# Procedure: as §1, §2
# SW480 cells = test: Inhibition of proliferation (Cell Titer Glo); format: cell-based, human; details: 72h, 100 μg/ml antibody or *100 ng/ml TWEAK
# Procedure: as §1, §2
# 786-O cells = test: Internalization of labeled antibodies (InCell Analyzer); format: cell-based, human
# Procedure: (§3) The antibodies were conjugated in the presence of a twofold molar excess of CypHer 5E mono NHS ester (batch 357392, GE Healthcare) at pH 8.3. […] These labeled antibodies were used in the following internalization assays. Prior to treatment cells (2×10^4/well) were seeded in 100 μl medium in a 96-MTP (fat, black, clear bottom No 4308776, Fa. Applied Biosystems). […] The identical treatment was carried out with the isotope control antibody (negative control). The incubation time was chosen to be 0, 0.5 h, 1 h, 2 h, 3 h, 6 h and 24 h. The fluorescence measurement was performed with the InCellAnalyzer 1000 (Fa. GE Healthcare). Granule counts per cell and total fluorescence intensity were measured in a kinetic fashion.
# HT-29 cells = test: as above; format: cell-based, human
# Procedure: as §3
# [2] = tested on: Bx-PC3 xenograft (pancreatic cancer); test: Xenograft anti-tumor efficacy; format: in vivo, mice; details: based on measurement of tumor area (*)
# Procedure: Tumor cell lines were cultivated as described in the parts above and 100 μl containing cell line specific numbers of tumor cells inoculated subcutaneously (s.c.) into female athymic nude mice (NMRI nu/nu, 6-8 weeks, 20-25 g, Taconic). Mice were housed under standardized pathogen free conditions and treated according to the animal welfare guidelines.
# After tumor growth to a size of approximately 40 mm^2 mice were randomized into control and treatment groups with a respective group size of n=8-10. Mice were treated with various doses of anti-TWEAKR antibodies diluted in PBS by intravenous injection (i.v.) into the tail vein with a twice per week schedule (q4dx3: applications twice per week, three applications in total; q4dx8: applications twice per week, eight applications in total). […]
# Tumor growth was monitored 2-3 times per week by caliper measurement (length×width in mm) as well as body weight (in g). […]
molecule,measurement,setting,value
"TPP-1538: anti-TWEAKR human IgG1; heavy chain SEQ ID NO: 62, light chain SEQ ID NO: 61 (antibody, listed as Homo Sapiens) heavy: EVQLLESGGGLVQPGGSLRLSCAASGFTFSPYPMMWVRQAPGKGLEWVSYISPSGGKTHYADSVKGRFTISRDNSKNTLYLQMNSLRAEDTAVYYCARGGDTYFDYFDYWGQGTLVTVSS[human IgG1 constant region not shown] light: AQDIQMTQSPATLSASVGDRVTITCRASQSISSYLNWYQQKPGKAPKLLIYAASSLQSGVPSRFSGSGSGTDFTLTISSLQPEDFATYYCQQSYSSPGITFGPGTKVEIKRTVAAPSVFIFPPSDEQLKSGTASVVCLLNNFYPREAKVQWKVDNALQSGNSQESVTEQDSKDSTYSLSSTLTLSKADYEKHKLYACEVTHQGLSSPVTKSFNRGEC",ka,[1],4.2e+06 M⁻¹ s⁻¹
same,kd,[1],0.11 s⁻¹
same,% Inhibition of proliferation,Lovo cells,65%
same,% Inhibition of proliferation,NCI-H1975 cells,64%
same,% Inhibition of proliferation,SW480 cells,49%
same,internalization (granule counts per cell),786-O cells,highly specific and significant internalization; also recorded: Rapid internalization
same,internalization,HT-29 cells,highly specific and significant internalization
same,Final T/C,[2],0.54*

# Entries after “also recorded” stand apart in the source; their conditions may differ. Marks after values point to notes of the source that are not given here.
